From PubChem BioAssay AID651820 (National Center for Advancing Translational Sciences (NCATS), 2012)
Screen size: about 340,000 compounds; about 12,000 (3.5%) were called active. Inconclusive means that the source gave no clear call. Such entries were picked first, then a sample of the others. Calls follow the shape of the dose curve; as a rule, active = well fitted inhibition curve with a large enough effect; inconclusive = small, poorly fitted or top-dose-only effect, or another doubt; inactive = no such curve, though single readings can be large or run the other way. No potency is given beside an inconclusive call; the fits are too rough.

Experiment: qHTS Assay for Inhibitors of Hepatitis C Virus (HCV)
Conditions: Huh7.5.1 HCVcc-Cre (HCVcc is cell-culture hepatitis C virus) infection, luciferase reporter, 44 h; activity change, negative = inhibition: at 41.8 µM (top of the series)
Method in brief: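 Seed cells (1,000/well) for 4 h; treat with compound and infect with HCVcc-Cre, moi about 0.5. Incubate 44 h, then detect luciferase activity.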
% is scaled to controls: 0 for no effect and ±100 for the full control effect; potency is read from the fitted curve at half-maximal effect; tags tell the direction and shape of the fitted curve.

Structure (SMILES)	Potency	activity change, negative = inhibition
CCn1c(=NC(=O)C2COc3ccccc3O2)sc2c(OC)ccc(OC)c21 (stereo not drawn)	active: 11.2 µM	–
COC(=O)C1=C(C)NC2=C(C(=O)CCC2)C1c1cn(Cc2ccc(Br)cc2)nc1-c1ccccc1 (stereo not drawn)	inconclusive [inhibitor, single point]	–
Cc1cc2oc(=O)cc(-c3ccccc3)c2c(C)c1-c1ccc(C(F)(F)F)cc1	inconclusive [inhibitor, single point]	–
CCOC(=O)c1c(C)oc2c1c(C(c1ccncc1)N1CCOCC1)c(O)c1ccccc12 (stereo not drawn)	active: 12.6 µM	–
CCN1CCCC1Cn1cnc2c([nH]c3cccc(Cl)c32)c1=O (stereo not drawn)	inconclusive [inhibitor, single point]	–
O=C1CN(C(=O)CSc2nc(-c3ccccc3)cs2)c2ccccc2N1	inconclusive [inhibitor, single point]	–
COc1ccc(/C=C/C(=O)C2CC2)cc1COc1cccc(C)c1C	inconclusive [inhibitor, single point]	–
Cc1ccnc(NC(=O)c2cccc(NC(=O)c3ccc(Cl)cc3)c2)c1	inconclusive [inhibitor, partial curve]	–
Cc1c(C(=O)OCC2CCCO2)[nH]c2c1C(=O)CC(c1ccco1)C2 (stereo not drawn)	inconclusive [inhibitor, single point]	–
COc1ccc(C(OC(=O)c2ccco2)C(=O)NC2CCCC2)cc1 (stereo not drawn)	–	inactive: -0.939%
CCS(=O)(=O)c1ccc(OC)c(N=Nc2ccc(O)c3ncccc23)c1	inconclusive [inhibitor, single point]	–
Cc1cccc(C)c1NC(=O)C(C)c1ccc(-c2ccccc2)c(F)c1 (stereo not drawn)	inconclusive [inhibitor, partial curve]	–
CC(C)c1cc(NC(=O)c2ccccc2)cc(C(C)C)c1O	inconclusive [inhibitor, single point]	–
N#CC1=C(N)N2C(=C(C#N)C13CCCCC3)SC1CCCCC12O (stereo not drawn)	inconclusive [inhibitor, single point]	–
CSc1ccc(CN2CCN(C(=O)c3ccncc3)CC2)cc1	inconclusive [inhibitor, partial curve]	–
Cc1cc(N2CCCCC2)n2nc(C)c(-c3ccccc3)c2n1	active: 1.58 µM	–
Cc1cc(C)n(/C(=C\N(C)C)C(=O)c2ccc(Cl)cc2)n1	–	inactive: 12.6%
COC(=O)C1=C(c2cc3ccccc3o2)C[C@@H]2CC[C@H]1N2C(=O)N1CCCCC1	inconclusive [inhibitor, partial curve]	–
O=C1CCCN1c1cc(Cl)cc(Cl)c1	inconclusive [inhibitor, partial curve]	–
CC(Oc1ccc(S(=O)(=O)N2CCCC2)cc1[N+](=O)[O-])C(=O)NC(C)c1ccccc1 (stereo not drawn)	–	inactive: -13.8%
O=C(Nc1ccc2nc3ccccc3nc2c1)c1ccccc1	inconclusive [inhibitor, single point]	–
Cc1cc(C(=O)CN2CCN(CC(=O)Nc3ccc(F)cc3)CC2)c(C)n1C1CC1	–	inactive: -4.84%
O=S(=O)(O)c1cccc2c(N=Nc3ccc(O)c4ncccc34)cccc12	inconclusive [inhibitor, partial curve]	–
COc1ccc(/C(C)=N\Nc2nc(-c3ccc(Cl)cc3)cc(C(F)(F)F)n2)cc1OC	inconclusive [inhibitor, partial curve]	–
CCOc1ccc(NC(=O)CN(C)C(=O)c2ccccc2OCCOc2ccccc2)cc1OCC	inconclusive [inhibitor, partial curve]	–

Structure (SMILES)	Potency	activity change, negative = inhibition
COc1ccc(C(=O)Oc2cc(/C=N/NC(N)=S)ccc2OC)cc1	–	inactive: -5.14%
COc1ccc(/C=C/C(=O)N(CC(C)C)CC(C)C)cc1Br	inconclusive [inhibitor, single point]	–
CCOC(=O)N1CCN(S(=O)(=O)c2ccc(C(=O)N(CCN(C)C)c3nc4ccc(CC)cc4s3)cc2)CC1	–	inactive: 1.05%
COc1cc(C)ccc1OCc1cc(C(=O)N2CCC(c3ccc(F)cc3)C2)no1 (stereo not drawn)	inconclusive [inhibitor, single point]	–
CC1CCC(CN2CCN=C2Nc2ccccc2)CC1 (stereo not drawn)	inconclusive [inhibitor, single point]	–
O=C(Nc1ccccc1N1CCCCC1)c1ccc(-c2ccc(Cl)cc2)o1	inconclusive [inhibitor, partial curve]	–
CCOc1ccc(CCNC(=O)c2nnc(CS(=O)(=O)c3ccccc3)o2)cc1OCC	–	inactive: -13.7%
O=C(NC1=NCCS1)c1ccc(Cl)c(S(=O)(=O)N2CCc3ccccc32)c1	inconclusive [inhibitor, single point]	–
CCCNC(=S)Nc1ccccc1	–	inactive: 8.55%
CCCCC1CCC(c2nc(-c3ccccn3)no2)CC1 (stereo not drawn)	inconclusive [inhibitor, single point]	–
CCOc1cc(NC(=S)NCc2ccco2)c(OCC)cc1NC(C)=O	inconclusive [inhibitor, single point]	–
CN1CCN(c2ccc(S(=O)(=O)N3CCCCC3)cc2NC(=O)c2ccc3ccccc3c2)CC1	inconclusive [inhibitor, partial curve]	–
COC(=O)c1ccc2c(c1)N(C)CCS2	–	inactive: -0.609%
CCOc1ccccc1OCCC(=O)OCC(=O)c1ccc[nH]1	–	inactive: 14.6%
CCCCC(CC)CNC(=O)c1cccs1 (stereo not drawn)	–	inactive: 13.1%
O=c1c(C=NCc2cccs2)c(O)n(C2CCCCC2)c(=O)n1C1CCCCC1	–	inactive: 3.54%
NC1=C(Cl)C(=O)c2ccccc2C1=O	active: 8.91 µM	–
COc1ccc(C(=O)C2CCN(CC(=O)Nc3cc(C)cc(C)c3)CC2)cc1	inconclusive [inhibitor, single point]	–
Cc1nc2ccccc2n1CCOc1ccccc1	inconclusive [inhibitor, partial curve]	–
CCC(C)NC(=O)CSC1=Nc2ccccc2C2=NC(CC(=O)NCc3ccccc3)C(=O)N12 (stereo not drawn)	inactive	–
CCCCn1c(N)c(N(CCOC)C(=O)CCNC(=O)c2ccc(Br)cc2)c(=O)[nH]c1=O	–	inactive: 8.49%
CCCCCOC(=O)c1[nH]c2c(c1C)C(=O)CC(c1ccco1)C2 (stereo not drawn)	inconclusive [inhibitor, partial curve, poor fit]	–
Cc1ccccc1CNS(=O)(=O)c1c(C(=O)N2CCCC2)c(C)n(C)c1C	–	inactive: 22.5%
COc1cc(OC)cc(C(=O)Nc2ccc(NC(=O)c3ccco3)c(Cl)c2)c1	inconclusive [inhibitor, partial curve, poor fit]	–
CC1=CC(=O)c2ccccc2C1=O	inactive	–

Structure (SMILES)	Potency	activity change, negative = inhibition
CCOC(=O)c1c(C)[nH]c(C(=O)OCC(=O)Nc2ccccc2)c1C	inconclusive [inhibitor, partial curve]	–
Cc1ccc(C(=O)Nc2nc3c(s2)CCCC3)o1	inconclusive [inhibitor, full curve, poor fit]	–
O=C(c1ccc2c(c1)OCO2)N1CCCN(C(=O)c2ccc3c(c2)OCO3)CC1	–	inactive: 9.1%
Cc1nc2cc(NC(=O)N3c4ccccc4CC3C)ccc2o1 (stereo not drawn)	inconclusive [inhibitor, single point]	–
O=C(NCC1CCCCC1)c1ccc(F)c(S(=O)(=O)N2CCOCC2)c1	–	inactive: 7.98%
CSc1ccc(-c2nc3cnccn3c2Nc2ccc3c(c2)OCO3)cc1	inconclusive [inhibitor, single point]	–
CN(C)S(=O)(=O)c1cc(C(=O)Nc2ccccc2C(=O)NC2CC2)ccc1Cl	inconclusive [inhibitor, partial curve]	–
CC1(C)CC(O)C(C)(C)N1O (stereo not drawn)	–	inactive: 5.72%
O=c1[nH][nH]c2nc(C(F)(F)F)cc(C(F)(F)F)c12	–	inactive: 9.3%
CCC(=O)N1c2ccc(S(=O)(=O)N3CCN(c4cc(C)ccc4C)CC3)cc2CC1C (stereo not drawn)	inconclusive [inhibitor, single point]	–
CCCOc1ccc(Cc2c(Cl)nc(SC)nc2NC)cc1	active: 2.82 µM	–
O=C(COC(=O)c1cccs1)Nc1ccccc1	–	inactive: -2.95%
O=C(NC(=S)Nc1c(F)cc(F)cc1Br)c1ccc2c(c1)OCCO2	inconclusive [inhibitor, single point]	–
COc1ccc(CNC(=O)Nc2ccccc2)cc1	–	inactive: 5.5%
Cc1ccc(C)c(OCCn2nnc3ccccc32)c1	–	inactive: -10.4%
CC(C)(C)C(=O)Nc1ccc(C(=O)N/N=C/c2ccccc2OC(=O)c2ccccc2)cc1	inconclusive [inhibitor, single point]	–
CCOC(=O)c1[nH]c(C)c(C(=O)OCC(=O)NCc2ccc(OC)cc2)c1C	inconclusive [inhibitor, partial curve]	–
CCN(CC)C(=O)[C@H]1C[C@H](CC(=O)NCC23CC4CC(CC(C4)C2)C3)C(=O)N2CCc3c([nH]c4ccc(Cl)cc34)[C@]12C	inconclusive [inhibitor, partial curve]	–
Cc1ccc2cc(CN(CCN(C)C)C(=S)Nc3ccccc3)c(=O)[nH]c2c1C	active: 10 µM	–
COc1ccccc1OCc1ccc(C(=O)Nc2cc(OC)c(OC)c(OC)c2)o1	inconclusive [inhibitor, partial curve]	–
CC(C)(C)CC(C)(C)NCC(O)COc1ccc2c(c1)CCC2 (stereo not drawn)	inconclusive [inhibitor, single point]	–
Nc1nonc1-n1nnc(C(=O)N/N=C/c2cccc(Cl)c2)c1CN1CCCC1	–	inactive: 8.38%
CCOC(=O)c1c(C)n(OCc2ccccc2)c2ccc3c(no[n+]3[O-])c12	active: 7.08 µM	–
